Results taken from PMC2844450 (Biochemistry, 2010).

How the values were obtained:
[1] = molecular target: T1, Factor IXa (activated factor IX), plasma protein (UniProt P00740 47-191; P00740 partial chain); test: enzyme inhibition kinetics
[2] = molecular target: T1, Factor IXa (activated factor IX), …; test: enzyme inhibition kinetics; remark: listed apart in the source

B1: AT-R393Y (antithrombin with the P1 Arg-393 replaced by the P1 Tyr of ZPI) (natural protein)
chain: not shown
[1]
  k2 with heparin: 3000 M⁻¹ s⁻¹
[2]
  k2 with pentasaccharide H5: 40 M⁻¹ s⁻¹
